Measurements from PubChem BioAssay AID1240 (Sanford-Burnham Center for Chemical Genomics, 2008).
The whole screen tested about 50,000 compounds, of which about 800 (1.6%) showed an effect of 50% or more. The list shows a part of the results.

biological target: Bcl-2-like protein 10 (Homo sapiens) (UniProt Q9HD36); experiment: Phenotype converters, Bcl-B/TR3 peptide binding displacement, primary biochemical FP (AID 1240); settings: GST-Bcl-B / FITC-TR3 peptide fluorescence polarization; stronger effect = higher value; compound at 3.75 mg/L;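 further: 0% = Bcl-B with tracer peptide and DMSO and 100% = tracer peptide lacking Bcl-B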
Chain of UniProt Q9HD36 (Q9HD36 whole entry, looked up): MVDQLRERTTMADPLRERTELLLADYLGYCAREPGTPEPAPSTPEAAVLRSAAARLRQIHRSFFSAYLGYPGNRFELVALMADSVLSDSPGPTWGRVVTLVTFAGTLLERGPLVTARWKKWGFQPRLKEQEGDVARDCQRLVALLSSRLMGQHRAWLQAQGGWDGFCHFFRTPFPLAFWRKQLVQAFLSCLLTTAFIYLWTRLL

| SMILES | displacement [%] |
| --- | --- |
| COc1ccc2c(c1)CC/C2=N/OC(=O)c1ccc(OC)c([N+](=O)[O-])c1 | 7.6 |
| O=c1cc(-c2ccc([N+](=O)[O-])cc2)nc2cc(-c3cccc(Cl)c3)[nH]n12 | -4.3 |
| Cc1cc(Br)c2[nH]c3c(c2c1)CCCC3=O | -5.9 |
| Cc1c(NC(=S)NC(C)(C)C)c(=O)n(-c2ccccc2)n1C | 5.2 |
| O=C(CN1C2=NCCCN2c2ccccc21)c1ccc(Br)cc1 | 5.9 |
| Cc1cc(-c2ccc(/C=c3/sc4nc5ccccc5n4c3=O)o2)cc([N+](=O)[O-])c1C | 1.7 |
| Cc1cccc(C(=O)O/N=C(\N)Cc2cccc3ccccc23)c1 | 40.7 |
| O=C(NCCCNC(=O)c1ccc(CN2CCOCC2)cc1)c1ccc(CN2CCOCC2)cc1 | 0.1 |
| Cc1ccc(C)c(NC(=O)CCCCCCCCCCC2COCCO2)c1 (centres undefined) | -7.4 |
| CCOC(=O)/C=C/CSc1nc2sc3c(c2c(=O)[nH]1)CCCC3 | -13.4 |
| O=C(CCCN1C(=O)/C(=C\c2ccc(F)cc2)SC1=S)Nc1ccccc1O | -12.5 |
| CC(=O)SCCC(=O)N1CCn2c3c(c4cc(C)ccc42)CCCC31 (centres undefined) | 14.3 |
| COc1ccc(/C=C2/SC(=O)N(CNc3ccc(Br)cc3C)C2=O)cc1 | 4.5 |
| COc1cc(/C=C2/SC(=S)N(CC(=O)Nc3cccc(C(=O)O)c3)C2=O)cc(OC)c1OC | 8.3 |
| COc1cc(/C=N\Nc2nnc(C)c(=O)[nH]2)cc([N+](=O)[O-])c1O | -3.3 |
| CCc1nnc(NC(=O)CSc2nc3ccccc3[nH]2)s1 | 5.1 |
| CC(=O)c1ccc(Nc2cc(C)nc3ncnn23)cc1 | 16.7 |
| Cc1cccc2c1[nH]c1nc(N/N=C\c3ccc(-c4ccccc4Cl)o3)nnc12 | 1.8 |
| COc1ccc(OC)c(/C=N/NC(=O)Cn2cnc3ccccc32)c1 | -0.6 |
| CC(=O)C1=C(C)NC(=S)NC1c1ccc(O)cc1 (centres undefined) | 9 |
| CCNC(=NCCc1ccccc1)SC1CC(=O)N(c2ccccc2)C1=O (centres undefined) | -10.7 |
| CCCC(C)C1C(C#N)=C(N)Oc2n[nH]c(-c3ccccc3)c21 (centres undefined) | -7.7 |
| C=CCn1c(SCC(=O)NCCO)nc2sc(C)c(C)c2c1=O | 11.4 |
| COc1cc2c(cc1NC(=O)c1ccc(C)c([N+](=O)[O-])c1)oc1ccccc12 | 1.2 |
| Cc1cccc(N2CCN(C3=NC(=O)/C(=C/c4ccc(-c5cccc([N+](=O)[O-])c5)o4)S3)CC2)c1 | 9.8 |
| O=C1C=C(NCc2ccc(F)cc2)CC(c2ccccc2)C1 (centres undefined) | -2.6 |
| CC(=O)N1N=C(C)CC1(O)c1cccnc1 (centres undefined) | -7.2 |

| SMILES | displacement [%] |
| --- | --- |
| COC(=O)c1ccc(NC(=S)Nc2ccccc2)cc1 | 1.3 |
| CCC(=O)Oc1ccc2c(=O)c(-c3ccccc3)coc2c1 | 11 |
| CC1(C)Cc2c(sc(NC(=O)C3(c4ccccc4)CCCC3)c2C#N)CO1 | -11.3 |
| Cc1ccc(/C(N)=N/OC(=O)COc2cccc(C)c2)cc1 | -1.3 |
| COc1ccc(/C(N)=N/OC(=O)c2ccc(Br)cc2)cc1 | -1.1 |
| CSc1ccc(CN2CCN(Cc3ccccc3C(F)(F)F)CC2)cc1 | -6.8 |
| COc1ccc(-c2c(C#N)c(N)nc(SCC(=O)OCc3ccccc3)c2C#N)cc1 | -12 |
| O=C(NCc1cccs1)c1cc2n(n1)C(C(F)(F)F)CC(c1ccc(Cl)c(Cl)c1)N2 (centres undefined) | -0.6 |
| COC(=O)c1c(C)oc2ccc(NS(=O)(=O)c3ccc(Cl)cc3)cc12 | 1.4 |
| COc1ccc(-c2nnc(Nc3ccccc3)c3ccccc23)cc1 | 0.8 |
| O=C1N=c2ccccc2=C1c1c(O)n(-c2ccccc2)[nH]c1=O | -4.6 |
| Cc1ccc2nsnc2c1NC(=O)c1cc(Cl)ccc1Cl | 31 |
| O=C(O)CCN1C(=O)/C(=C/c2ccc(-c3ccc(Cl)cc3)o2)SC1=S | -78.5 |
| O=C1NC(=O)N(c2ccc(Cl)cc2)C(=O)/C1=C/c1cccc(F)c1 | -7.8 |
| O=C1NN(c2ccccc2)C(=O)/C1=C/c1ccc(F)c(Br)c1 | 4.7 |
| CCCCOc1ccc(C(=O)Nc2ccccc2OC(C)C)cc1 | 10.7 |
| COc1ccc(/C=N/n2cn[nH]c2=S)cc1 | -6.3 |
| O=C(NCCc1ccccc1)c1cc2n(n1)C(C(F)(F)F)CC(c1cccs1)N2 (centres undefined) | 7 |
| O=C1CC(c2ccccc2)=NN1c1nc2ccccc2s1 | -15.5 |
| CCOC(=O)C(NC(=O)CC)C(O)c1cccc([N+](=O)[O-])c1 (centres undefined) | -0.9 |
| CCOc1ccc(N(CC(=O)Nc2ccc(OC)cc2OC)S(=O)(=O)c2ccc(SC)cc2)cc1 | 9.6 |
| CCN(CC)c1ccc(C(=O)N2CCN(c3ccccc3OC)CC2)cc1 | 0.8 |
| O=C(Nc1ccc(-c2cn3ccccc3n2)cc1)c1ccccc1Cl | 12.2 |
| Cc1ccnc(NS(=O)(=O)c2ccc(NC(=O)c3cc(-c4ccccc4)nc4ccccc34)cc2)n1 | 12.6 |
| c1ccc(OCCCN2CCCC2)cc1 | -4 |
| CCOC(=O)C1=C(C)N=c2s/c(=C\c3ccc4ccccc4n3)c(=O)n2C1c1ccccc1 (centres undefined) | -11.7 |
| CCOc1ccc(N(CC(=O)Nc2ccc(C)c(C)c2)S(C)(=O)=O)cc1 | 43.3 |
